Results as given in the RNAGym collection of RNA variant scans (doi:10.1093/nar/gkz1192).
Read counts are not given, so values of variants with three or more changes are uncertain.

B1: CPEB3 Ribozyme (parent)
chain: UAACAGGGGGCCACAGCAGAAGCGUUCACGUCGCAGCCCCUGUCAGAUUCUGGUGAAUCUGCGAAUUCUGCUGUAUAUCUC

Variants of: B1
Experiment: self-cleavage, relative activity (ratio to wild type); higher = more cleavage; in vitro, sequencing
In short: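 After error-prone PCR and barcoding, CPEB3 ribozyme mutant libraries were transcribed with T7 RNA polymerase at 37°C for 5 hours, then given 15 min with DNase I before an EDTA stop, and they cleaved during both steps. Reverse transcription with template switching preceded Illumina sequencing. Relative activity divides a variant's cleaved/total read fraction by the unmutated ribozyme's. At least 5 reads were required per variant, and three batches were averaged.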

Row | Variant | self-cleavage
1 | C11U A20G A35U U54C A64G U67C | 0.07
2 | C11G A20G U26C U54C A56U | 0.09
3 | C11U G22C U41C U51C A56G U74C | 0.09
4 | C11G U51C U58A | 0.13
5 | C12A A18U C50G | 0.21
6 | C11U U25C A64U U67C | 0.04
7 | C11U G30U C37U U43C U48C U66C A77G | 0.03
8 | C11G A21G U25C U41A A56G | 0.04
9 | C11U U41C A45U G46C A57G U76C U78C | 0.04
10 | C12A A13G U43A U72C | 0.5
11 | C11G A18U A20G U54A U58A | 0.08
12 | C11G U31A U41C U51C U54C A56G U67C | 0.06
13 | C11U A13U U26A G33A | 0.09
14 | C11U A15U C40G A65G | 0.01
15 | C11U G63A A75G | 0.12
16 | C11U A20G A35G G46U A56U | 0.17
17 | C11G U49A G52A | 0.59
18 | C12A A45G A65G | 0.45
19 | C12A A13U A21G G24A U25G | 0.06
20 | C11G A20G U25C A28G | 0.41
21 | C11G C17U U41C | 0.54
22 | C11U A13G A57G A64U U66A U76A | 0.13
23 | C11U U25A U51C A57G U67C U80C | 0.05
24 | C12A A18C C32A A57C U67A U72C | 0.06

Row | Variant | self-cleavage
25 | C11G G19U C34U A35G C39A | 0.26
26 | C11G C27U A28G U51A | 0.06
27 | C11G A20G G33A U41C | 0.14
28 | C11U A13U U31A U41C U60A | 0.1
29 | C11U A20G A64C | 0.14
30 | C11G G30A A47G A65G | 0.07
31 | C11G G16U A47G A64G U69C | 0.16
32 | C11G U26C C32U G46U | 0.17
33 | C11U A20C U25C C32A C59U U60A U72G | 0.03
34 | C11G U26C U51C U78C | 0.15
35 | C11U U41C U49A U54C C62A A64G U67C | 0.06
36 | C11G U51C U54C | 0.48
37 | C11G C17U C32G C50G U60A U72C U80A | 0.03
38 | C12A A21G A35G U66G | 0.41
39 | C11U G22A U31C A45G U51C C71A U78A | 0.02
40 | C11G C59U U78C | 0.38
41 | C11U U31A U60C | 0.06
42 | C11G A45G A47G U60G U80C | 0.09
43 | C11G U26G U48C A64G A65G U76C U78C | 0.07
44 | C11U A35G C37G U51A A64G U67C | 0.05
45 | C11G A21G U66C | 0.25
46 | C11U A13U U31A A35G U41C U80C | 0.75
47 | C11U U26C A28G | 0.35
48 | C11U A18G U26C A56U | 0.17

Row | Variant | self-cleavage
49 | C11G C14U C17G A18G U25C U78C | 0.06
50 | C11U G33A A56U C71U U72C A77G | 0.03
51 | C11G A47G U48C | 0.08
52 | C11G A18G A56G U69C | 0.2
53 | C11U A21G U31C U43A G52C U74C U76C | 0.14
54 | C11U U26C A35U U49C A64U | 0.06
55 | C11G C23G U41C U72C | 0.06
56 | C11U A13U U31A U41C A77G | 0.3
57 | C11U A13U A45G U80A | 0.15
58 | C11G A18U U60C | 0.19
59 | C11U C12A A45C | 0.27
60 | C11U U49C U69G U80C | 0.04
61 | C12A A18U A21G A28G U31C G33A C40A | 0.06
62 | C12A A28G U60G | 0.14
63 | C12A A13G A21G G22A U54C | 0.16
64 | C11U U26C U41G G70A U80C | 0.09
65 | C11G C40U U51A A57G | 0.37
66 | C11U C39U A45U A47G U60A | 0.37
67 | C11U A28C A47U U48C A57G U58A | 0.1
68 | C11G C23U U26C U51G U60C | 0.05
69 | C11G A18G U25G C38A U72C U78C | 0.05
70 | C11U A18G U43A A57U | 0.11
71 | C11U A18U U49C U51A A57G U67A U69G | 0.03
72 | C11U A20G C39A U41C U51A | 0.11

Row | Variant | self-cleavage
73 | C11G U25G A28G G30A A45C | 0.05
74 | C11G C32A A45G U54C | 0.08
75 | C12A A13G U72C | 1.12
76 | C11G C17U U43A | 0.48
77 | C11G U26C A35G U60A G63A C79U | 0.06
78 | C11G U26C U43C A56U | 0.32
79 | C11U A15G U26C U48C U80G | 0.04
80 | C11U G30U U49G C71U | 0.07
81 | C11U U26A U60C A77G | 0.05
82 | C11G G63A A64G U67C | 0.04
83 | C11U U25C U72A A75G | 0.24
84 | C11U A15G G30A U48C U54C A64U | 0.04
85 | C11U A18G U58C C68U | 0.05
86 | C11G U43C U58C A64U | 0.19
87 | C11G A20U G33A G63C A65G | 0.04
88 | C11U A21C U49C U69G U80A | 0.03
89 | C11U A64G U78A | 0.25
90 | C11U A64G U78C | 0.15
91 | C12A A13G A64U A75G U78C | 0.49
92 | C11G U31G U41A C71G | 0.05
93 | C12A A13G G30A U48C | 0.08
94 | C11U U25C A75U | 0.13
95 | C11G C40U U43A | 0.21
96 | C12A A21G A64U | 0.15

Row | Variant | self-cleavage
97 | C11U C17U C62A U67C A77G | 0.13
98 | C11U U78C U80C | 0.18
99 | C11G U26C U51A U60A | 0.23
100 | C11G A21G U49C U51C U78G | 0.16
101 | C11U A18G C29U | 0.33
102 | C11G A28G U51A | 0.12
103 | C11U A45C U48C | 0.17
104 | C11G A28G A56C | 0.16
105 | C11G C23U U31A U48C | 0.04
106 | C11G G22A U51A U54A U72A U78A | 0.04
107 | C11G G30A U31C U49G U51C G53U U66C | 0.04
108 | C11U G63A U80C | 0.32
109 | C11G U31G U51G U54C A75U | 0.09
110 | C11G G22A C32A A47C U51A U60C A64G | 0.04
111 | C11U A20G A28G U41C A64G | 0.24
112 | C11G G24C U49C | 0.13
113 | C11G U31C A45U U69G | 0.12
114 | C11G U43A C59A U67C | 0.05
115 | C12A A13U A20G A21G U51C U60C | 0.23
116 | C11U A18G U78C | 0.16
117 | C11G U31C A35U U41C U80C | 0.33
118 | C11G A35G U69C | 0.46
119 | C11U A45U U49A U67A U69C U80C | 0.04
120 | C11G U41C U74C | 1

Row | Variant | self-cleavage
121 | C12A A15G A75U | 1.2
122 | C11U A15G U58C A64U | 0.1
123 | C11U A20U U26A A47G U72A U80C | 0.05
124 | C12A A15U U60A U66C U76C | 0.16
125 | C11G A20U A45U A64U | 0.04
126 | C11U G33A C59A | 0.15
127 | C12A A15G A18G U51A A56U | 0.12
128 | C11G U43A A56G | 0.51
129 | C11U U58C A64U | 0.13
130 | C11U C32A A56G U69A | 0.21
131 | C11G A20G U43A U51C C59A | 0.05
132 | C12A A28G U51C U74A | 0.96
133 | C11G U26C G30U A64G U66A | 0.04
134 | C11U A20U U41C A57G A77U | 0.06
135 | C11U C29U A75U | 0.29
136 | C11G U66A U72A | 0.28
137 | C12A A35G A64C | 0.21
138 | C12A A15U U72C | 0.88
139 | C11G A21U U43A U69C | 0.25
140 | C11G A35C G36C U41C | 0.46
141 | C11G G22U C27U U31A U48G U49A U69C | 0.08
142 | C11U A21G U25G C29U A35G U48C | 0.19
143 | C11G A18U A21G C37A A45G U60C | 0.03
144 | C11U U41A A75G | 0.11

Row | Variant | self-cleavage
145 | C11U C27A U48C | 0.23
146 | C11U G16U A21G A47G U74C | 0.34
147 | C11G C34G A64G U72C | 0.08
148 | C12A A28C U66A | 0.26
149 | C11U A28G C38U A45U U51G U66C U72A | 0.02
150 | C11G A21G A45U | 0.06
151 | C11U A18G U41A U67A | 0.07
152 | C11G A45G U48A U72C | 0.28
153 | C11U G16A U31G U80A | 0.05
154 | C11G A18U A20G U31G G63C A77G | 0.04
155 | C11G A35G U41C U49C U54C U60A | 0.05
156 | C11U C23U C32G C44U U54C | 0.04
157 | C11G U43C U51A C62A A64G U78A | 0.04
158 | C11G U26C G36A U41C U51A | 0.24
159 | C11G C23U G36U U51C U69C | 0.04
160 | C12A A35U C37U U48C C59G | 0.14
161 | C11G A56G C81U | 0.25
162 | C11G C29U U60A | 0.26
163 | C11G C32G U43A U66C | 0.07
164 | C11U C27U A28G A56U A64G | 0.07
165 | C11U U43A U60A | 0.52
166 | C11G C27G U67C U72A | 0.04
167 | C12A A13U A21G U58C | 0.3
